Measurements reported in PubChem BioAssay AID493208 (National Center for Advancing Translational Sciences (NCATS), 2011).
In all, about 44,000 compounds went through this assay and about 340 (0.77%) were called active. Roughly 5% stayed inconclusive and do not appear here. The call rests on the fitted dose curve; in most records, active means well fitted inhibition curve with a large enough effect; inconclusive means small, poorly fitted or top-dose-only effect; inactive means flat fitted curve, though single readings scatter. This is one part of the list.

Test: Acumen qHTS Assay for Inhibitors of the mTORC1 Signaling Pathway in MEF (Tsc2-/-, p53-/-) Cells: Sytravon;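 further: plate controls were DMSO for no effect and rapamycin for full effect; nearly all actives have a fitted effect of over 50% in size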
Conditions: phospho-rpS6 immunofluorescence/PI, 24 h; series mostly up to 38.3 µM; activity change, negative = inhibition: at the top concentration
Method in brief: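 Readout is phospho-S6 Alexa 488 signal normalized to PI per well, reported as % active cells with thresholds set from rapamycin (7.5 nM) and DMSO controls. Cells: Tsc2-/-, p53-/- MEFs, 24 hrs compound at 37 C; PI cell number serves as viability.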

Row | Compound | activity change, negative = inhibition
1 | COc1ccc(OCCCn2c(=O)oc3ccc(C)cc32)cc1 | inactive: -3.79%
2 | O=C(CSc1nc2c(oc3ccccc32)c(=O)n1Cc1ccco1)Nc1cccc(Cl)c1 | inactive: -8.08%
3 | Cc1cn(C)c(CC(=O)Nc2cccc(Cl)c2C)c1C(=O)O | inactive: -2.91%
4 | Cc1cc(C)cc(NC(=O)CN2C(=O)c3ccccc3Sc3ccc(C(=O)N4CCOCC4)cc32)c1 | inactive: 0.0864%
5 | COc1cc2c(cc1NS(=O)(=O)c1cccc(C#N)c1)n(C)c(=O)n2C | inactive: 11.6%
6 | Cc1ccc(C)c(Cn2nnc(C(=O)NCc3ccc(Cl)cc3Cl)c2N)c1 | inactive: -13.6%
7 | C=CCc1cccc2cc(C(=O)Nc3cccc(Cl)c3)c(=O)oc12 | inactive: 7.35%
8 | Cc1cccc(C(=O)NCCc2sc(-c3ccccc3)nc2C)c1 | inactive: 1.65%
9 | CCOC(=O)c1sc2ccccc2c1S(=O)(=O)Nc1cccc(C(F)(F)F)c1 | inactive: -5.71%
10 | Cc1coc2c1c(C)cc1oc(=O)cc(C)c12 | inactive: 4.72%
11 | CC(C)OCCCNC(=O)c1ccc2c(=O)n(CCc3ccccc3)c(=O)[nH]c2c1 | inactive: -17.2%
12 | Cc1oc(-c2cccc(Cl)c2)nc1CN1CCCC(C(=O)NCc2ccc(F)cc2)C1 (stereo unspecified) | inactive: 3.01%
13 | CCCCN(C)C(=O)C(Cc1ccccc1)NS(=O)(=O)c1ccc2c(c1)c(=O)n(C)c(=O)n2C (stereo unspecified) | inactive: -1.16%
14 | COc1ccc(-c2nnc(SCC(=O)Oc3c(C)cccc3C)o2)cc1OC | inactive: 8.06%
15 | COC(=O)c1cc(NC(=O)Cn2nc(C)n3cccc3c2=O)cc(C(=O)OC)c1 | inactive: -6.22%
16 | CCC(C)NC(=O)c1ccc(-n2c(-c3ccccc3)cc3c2CCCC3)cc1 (stereo unspecified) | inactive: 0%
17 | Cc1ccc(-c2c(C(=O)NCc3ccccc3)oc(=O)c3ccccc23)cc1 | inactive: 2.73%
18 | Cc1ccccc1CNC(=O)c1ccc(-c2nc(CS(=O)(=O)c3ccccc3)c(C)o2)cc1 | inactive: -9.18%
19 | CCOC(=O)C1=C(CS(=O)(=O)c2ccc(Br)cc2)NC(=O)NC1c1ccccc1 (stereo unspecified) | inactive: -15.3%
20 | COc1ccc(C)cc1NC(=O)CN(c1cc(C(F)(F)F)ccc1Cl)S(C)(=O)=O | inactive: 1.59%
21 | CCc1cccc(C)c1NC(=O)c1cc(C)nc2c1c(C)nn2-c1cccc(Cl)c1C | inactive: -1.37%
22 | COc1cc(NC(=O)c2cc(Cl)c(OC)c(Cl)c2)ccc1NC(=O)c1cc2ccccc2o1 | inactive: 4.43%
23 | Cc1cc(OC(=O)c2cc(-c3ccc4c(c3)OCCO4)on2)ccc1Cl | inactive: -1.3%
24 | Cc1ccc(CN2CCCn3nc(C(=O)NCCc4ccc(Cl)cc4)cc3C2=O)cc1 | inactive: -1.4%

Row | Compound | activity change, negative = inhibition
25 | COc1ccccc1CNC(=O)CCn1c(=O)c2ccccc2n(CC(=O)Nc2ccc(C)cc2C)c1=O | inactive: 1.93%
26 | CN1c2ccccc2-c2nc(SCC(=O)Nc3ccccc3C(F)(F)F)ncc2S1(=O)=O | inactive: -4.52%
27 | CCc1nn2c(=O)c(S(=O)(=O)Nc3ccc(OC)c(Cl)c3)c(C)nc2s1 | inactive: 1.19%
28 | Cc1ccc(CSc2nc3ccc(NC(=O)C(C)C)cc3s2)cc1 | inactive: -1.29%
29 | CCN(Cc1ccccc1)C(=O)Cn1c(=O)n(Cc2ccccc2)c(=O)c2c1c1cc(OC)ccc1n2C | inactive: 0.729%
30 | O=C(NCC(c1cccnc1)N1CCN(Cc2ccccc2)CC1)C(=O)Nc1ccc(Cl)cc1 (stereo unspecified) | inactive: 10.4%
31 | COc1ccc(C(CC(=O)Nc2ccc(C)c(C)c2)N2Cc3ccccc3C2=O)cc1OC (stereo unspecified) | inactive: -2.28%
32 | CC(C)c1ccc(S(=O)(=O)c2nnn3c2nc(NC2CCCC2)c2sccc23)cc1 | inactive: -0.0942%
33 | Cc1ccc(CSCC(=O)N2CCN(c3ccc(F)cc3)CC2)cc1 | inactive: 0.685%
34 | Cc1ccc2c(=O)cc(CSc3ccccc3)[nH]c2c1C | inactive: 1.59%
35 | Cc1nc(CC(=O)Nc2cccc(C)c2C)cs1 | inactive: 0.667%
36 | CC(=O)c1cccc(S(=O)(=O)NCCc2csc3nc(-c4ccc(F)cc4)nn23)c1 | inactive: 2.34%
37 | Cc1cccc(N(CC(=O)Nc2ccc(Br)cc2)S(C)(=O)=O)c1C | inactive: 0.657%
38 | COc1ccc(C(=O)NCc2ccc3c(c2)CCN3C(=O)c2ccncc2)cc1 | inactive: 0.566%
39 | O=S(=O)(c1ccc2ccccc2c1)n1nc(-c2ccco2)nc1NCc1ccc(F)cc1 | inactive: -2.3%
40 | Cc1cc(NC(=O)CCCn2c(C)c3cnn(-c4ccccc4)c(=O)c3c2C)ccc1Br | inactive: 1.14%
41 | CCOc1ccccc1NC(=O)CN1C(=O)CC(c2ccco2)Sc2ccccc21 (stereo unspecified) | inactive: -16%
42 | Cc1cc(C)cc(C(=O)N(Cc2nc(-c3ccc(Cl)cc3)no2)C(C)C)c1 | inactive: -9.76%
43 | COCCNC(=O)C(=O)NCC(c1ccc2c(c1)OCO2)N1CCOCC1 (stereo unspecified) | inactive: 1.67%
44 | CCN(C(=O)CSc1ncc(S(=O)(=O)c2ccc(C)c(Cl)c2)c(=O)[nH]1)c1cccc(C)c1 | inactive: -6.17%
45 | COC(=O)c1ccc(OCC(O)Cn2cnc3cc(C)c(C)cc32)cc1 (stereo unspecified) | inactive: 0.0223%
46 | Cc1ccc(C(=O)Nc2ccc(-c3nc4ccccc4s3)c(O)c2)c(C)c1 | inactive: -3.69%
47 | CCCCN(C)CCNC(=O)c1cc(=O)[nH]c2ccc(S(=O)(=O)N3CCCCCC3)cc12 | inactive: 7.61%
48 | Cc1cc(NC(=O)c2ccc(-c3ccc(Cl)cc3)o2)cc(-c2nc3ncccc3o2)c1O | inactive: -1.4%

Row | Compound | activity change, negative = inhibition
49 | Cc1ccc(CNC(=O)c2cnc(N(C)C)nc2)cc1 | inactive: 1.12%
50 | Cc1nc(-n2nc(C)c(Cc3ccccc3Cl)c2C)sc1C(=O)N1CCCCC1C (stereo unspecified) | inactive: -7.82%
51 | COc1ccc(NC(=O)c2oc3ccccc3c2NC(=O)c2cc(=O)c3c(C)cc(C)cc3o2)cc1 | inactive: 2.31%
52 | Cc1ccc(NC(=O)c2ncn(-c3ccccc3)n2)cc1Cl | inactive: -20.6%
53 | COc1ccc(-c2nc(C(=O)Nc3cccc(C(C)=O)c3)nn2-c2ccc(Cl)cc2)cc1 | inactive: 0.929%
54 | Cc1ccc(NC(=O)CS(=O)(=O)c2nc(-c3ccc(C)cc3)cn2-c2ccc(C)cc2)cc1 | inactive: -17.9%
55 | CCOc1ccccc1NC(=O)CC1C(=O)NCCN1C(=O)c1ccc(F)cc1 (stereo unspecified) | inactive: -12.6%
56 | COc1ccc(OC)c(Nc2nc3ccccc3n3c(C)nnc23)c1 | inactive: 1.66%
57 | O=C(Nc1cc(-c2nc3cc(Cl)ccc3o2)ccc1Cl)c1cccs1 | inactive: -3.7%
58 | C#CC(C)(CC)NC(=O)Cn1nnc(-c2ccc(OCc3ccccc3F)cc2)n1 (stereo unspecified) | inactive: -10.6%
59 | COc1ccc(COC(=O)c2[nH]c3c(c2C)C(=O)CC(c2ccc(OC)c(OC)c2)C3)cc1 (stereo unspecified) | inactive: -17.3%
60 | COc1ccccc1-c1c(C)nn2c(N3CCN(c4cccc(Cl)c4)CC3)cc(C)nc12 | inactive: -0.826%
61 | Cc1c(NS(=O)(=O)c2cccc(C(=O)O)c2)c(=O)n(-c2ccccc2)n1C | inactive: -1.65%
62 | COc1ccc(OC)c(NC(=O)c2cc3c(s2)-c2ccccc2SC3)c1 | inactive: -4%
63 | CCC(=O)N1c2ccccc2CC1C(=O)NCc1ccccc1C (stereo unspecified) | inactive: 0%
64 | O=C(CSc1nnc(CNC(=O)c2c(F)cccc2Cl)o1)Nc1ccccc1F | inactive: -3.05%
65 | Cc1ccc(-n2ncc(C(=O)NC3CCCC3)c2C2CCN(C(=O)OC(C)(C)C)CC2)c(C)c1 | inactive: 6.72%
66 | CS(=O)(=O)c1ncc(N(Cc2ccco2)Cc2ccco2)c(C(=O)Nc2ccccc2Br)n1 | inactive: -0.144%
67 | CC1=C(C(=O)OCc2ccc(C)cc2)C(c2c(Cl)cccc2Cl)CC(=O)N1 (stereo unspecified) | inactive: -9.63%
68 | Cc1ccc(C)c(NS(=O)(=O)c2ccc3c4c(cccc24)C(=O)N3)c1 | inactive: -10.8%
69 | COc1cccc(Cn2nnc3c(=O)[nH]c(C4CCCN(C(=O)c5ccc(C)cc5)C4)nc32)c1 (stereo unspecified) | inactive: -0.758%
70 | CNc1nc(Oc2ccc(=O)n(C)n2)nc(N2CCOCC2)n1 | inactive: 3.65%
71 | Cn1c(SCC(=O)N2CCCc3ccccc32)ncc(C(=O)Nc2ccc(Cl)cc2)c1=O | inactive: -4.9%
72 | COc1cccc(CN(Cc2ccco2)c2cnc(S(C)(=O)=O)nc2C(=O)Nc2cccc(Cl)c2C)c1 | inactive: 2.73%

Row | Compound | activity change, negative = inhibition
73 | CCc1nc2nc(C)cc(Nc3ccc(OC)cc3)n2n1 | inactive: -3.09%
74 | CN(C1CCCCC1)S(=O)(=O)c1ccc2c(c1)c(=O)c(C(=O)NCCc1ccc(Cl)cc1)cn2C | inactive: -2.54%
75 | Cc1ccc(-c2nnc(Nc3cccc(Cl)c3)c3ccccc23)cc1S(=O)(=O)NCC1CCCO1 (stereo unspecified) | inactive: -3.75%
76 | CSCCC(NS(=O)(=O)c1ccc2c(c1)oc(=O)n2C)C(=O)NCCc1ccc(C)cc1 (stereo unspecified) | inactive: -4.94%
77 | O=S(=O)(NCCSc1nnnn1-c1ccccc1)c1ccc(F)cc1 | inactive: 2.72%
78 | Cc1ccc(-c2onc(C)c2C)cc1S(=O)(=O)NCc1ccco1 | inactive: 0%
79 | COc1cccc(OCCCCn2c(-c3ccc(Cl)cc3)nc3ccccc3c2=O)c1 | inactive: 6.93%
80 | O=C(c1cccc([N+](=O)[O-])c1)N1c2ncnn2C2(CCCCC2)[C@@H]2CCCC[C@@H]21 | inactive: -11.3%
81 | CC(=O)Nc1ccc(S(=O)(=O)NC2(C(F)(F)F)NC(=O)N(c3ccc(C)cc3)C2=O)cc1 (stereo unspecified) | inactive: -3%
82 | CCOc1cc(C(=O)Nc2cccc(-c3nc4ccccc4o3)c2)cc(OCC)c1OCC | inactive: -13.9%
83 | Cc1ccc(S(=O)(=O)c2cnc(SCC(=O)Nc3ccc4c(c3)OCCO4)[nH]c2=O)cc1 | inactive: 0.119%
84 | Cc1cc(Nc2ccc(C)c(C)c2)n2cnnc2n1 | inactive: -2.03%
85 | COc1ccc2c(c1)c1c(c(=O)n(-c3ccccc3C)c(=O)n1CC(=O)NCc1ccc(C)cc1)n2C | inactive: -3.92%
86 | Cc1ccc(S(=O)(=O)c2cnc(SCC(=O)Nc3cc(C)cc(C)c3)nc2N)cc1 | inactive: -0.818%
87 | CCCCc1ccc(-n2nc3cc(C)c(NC(=O)Cc4ccccc4)cc3n2)cc1 | inactive: -2.02%
88 | Cc1ccc2cccc(NC(=O)COc3ccccc3[N+](=O)[O-])c2n1 | inactive: 1.03%
89 | COC(=O)c1ccccc1NC(=O)Cn1cc(S(=O)(=O)Cc2ccccc2F)c2ccccc21 | inactive: 1.1%
90 | CCOC(=O)c1c(C)oc2nc(C)nc(NCc3ccccc3Cl)c12 | inactive: 1.1%
91 | CCN(CC)c1ccc(NC(=O)CSc2nnc(C)c(=O)[nH]2)cc1 | inactive: 0.524%
92 | Cc1cccc(CN2C(=O)c3ccccc3Sc3ccc(C(=O)N4CCCC4)cc32)c1 | inactive: 1.56%
93 | CCOC(=O)c1c(NC(=O)COc2ccccc2F)sc2c1CCCC2 | inactive: -5.83%
94 | CCc1ccc(N(CC)C(=O)c2ccc3c(=O)n4c(nc3c2)CCCCC4)cc1 | inactive: -0.101%
95 | COC(=O)c1c(-c2cccs2)csc1NC(=O)c1ccc(Cl)cc1 | inactive: -1.67%
96 | COCCN1C(=O)c2[nH]nc(-c3ccccc3O)c2C1c1ccc(OCc2ccccc2)c(OC)c1 (stereo unspecified) | inactive: -13.8%
